Data reported in the supplement of paper PMC8728848.
Some of the results follow.

Assays:
Assay in all cases: glycan array binding signal (z-score within array); higher = stronger binding
Conditions in all cases: glycan notation: IUPAC condensed, linker removed
[1] = molecular target: Fuc(a1-2)Gal(b1-4)GlcNAc(b1-3)Gal(b1-4)GlcNAc(b1-2)Man(a1-3)[Fuc(a1-2)Gal(b1-4)GlcNAc(b1-3)Gal(b1-4)GlcNAc(b1-2)Man(a1-6)]Man(b1-4)GlcNAc(b1-4)GlcNAc
Summary of the method: (§1)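 From the Consortium for Functional Glycomics database, 3228 arrays were curated, keeping only those whose protein sequence was available. Binding is given as a within-array Z-score averaged across arrays sharing a protein sequence and across linkers. Negative Z-scores can be read as non-binding.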

[2] = molecular target: Fuc(a1-2)Gal(b1-4)GlcNAc(b1-3)Gal(b1-4)GlcNAc(b1-3)Gal(b1-4)GlcNAc
Summary of the method: as §1

[3] = molecular target: Fuc(a1-2)Gal(b1-4)GlcNAc(b1-3)GalNAc
Summary of the method: as §1

[4] = molecular target: Fuc(a1-2)Gal(b1-4)GlcNAc(b1-3)[Fuc(a1-2)Gal(b1-4)GlcNAc(b1-6)]GalNAc
Summary of the method: as §1

[5] = molecular target: Fuc(a1-2)Gal(b1-4)GlcNAc(b1-3)[Fuc(a1-3)[Gal(b1-4)]GlcNAc(b1-6)]Gal(b1-4)Glc
Summary of the method: as §1

[6] = molecular target: Fuc(a1-2)Gal(b1-4)GlcNAc(b1-6)GalNAc
Summary of the method: as §1

[7] = molecular target: Fuc(a1-2)Gal(b1-4)GlcNAc6S
Summary of the method: as §1

[8] = molecular target: Fuc(a1-2)Gal(b1-4)[Fuc(a1-3)]GlcNAc
Summary of the method: as §1

[9] = molecular target: Fuc(a1-2)Gal(b1-4)[Fuc(a1-3)]GlcNAc(b1-2)Man(a1-3)[Fuc(a1-2)Gal(b1-4)[Fuc(a1-3)]GlcNAc(b1-2)Man(a1-6)]Man(b1-4)GlcNAc(b1-4)[Fuc(a1-6)]GlcNAc
Summary of the method: as §1

[10] = molecular target: Fuc(a1-2)Gal(b1-4)[Fuc(a1-3)]GlcNAc(b1-2)[Fuc(a1-2)Gal(b1-4)[Fuc(a1-3)]GlcNAc(b1-4)]Man(a1-3)[Fuc(a1-2)Gal(b1-4)[Fuc(a1-3)]GlcNAc(b1-2)Man(a1-6)]Man(b1-4)GlcNAc(b1-4)GlcNAc
Summary of the method: as §1

[11] = molecular target: Fuc(a1-2)Gal(b1-4)[Fuc(a1-3)]GlcNAc(b1-3)Gal(b1-4)[Fuc(a1-3)]GlcNAc
Summary of the method: as §1

[12] = molecular target: Fuc(a1-2)Gal(b1-4)[Fuc(a1-3)]GlcNAc(b1-3)Gal(b1-4)[Fuc(a1-3)]GlcNAc(b1-3)Gal(b1-4)[Fuc(a1-3)]GlcNAc
Summary of the method: as §1

[13] = molecular target: Fuc(a1-2)Gal(b1-4)[Fuc(a1-3)]GlcNAc(b1-3)GalNAc
Summary of the method: as §1

[14] = molecular target: Fuc(a1-2)Gal(b1-4)[Fuc(a1-3)]GlcNAc(b1-3)[Neu5Ac(a2-6)Gal(b1-4)GlcNAc(b1-6)]Gal(b1-4)Glc
Summary of the method: as §1

[15] = molecular target: Fuc(a1-2)Gal3S(b1-4)GlcNAc
Summary of the method: as §1

[16] = molecular target: Fuc(a1-2)Gal6S(b1-3)GlcNAc
Summary of the method: as §1

[17] = molecular target: Fuc(a1-2)Gal6S(b1-3)GlcNAc6S
Summary of the method: as §1

Fuc(a1-2)Gal6S(b1-4)Glc = molecular target: Fuc(a1-2)Gal6S(b1-4)Glc
Summary of the method: as §1

[18] = molecular target: Fuc(a1-2)Gal6S(b1-4)Glc6S
Summary of the method: as §1

Fuc(a1-2)[Gal(a1-3)]Gal = molecular target: Fuc(a1-2)[Gal(a1-3)]Gal
Summary of the method: as §1

[19] = molecular target: Fuc(a1-2)[Gal(a1-3)]Gal(b1-3)GalNAc
Summary of the method: as §1

[20] = molecular target: Fuc(a1-2)[Gal(a1-3)]Gal(b1-3)GalNAc(b1-3)Gal(a1-4)Gal(b1-4)Glc
Summary of the method: as §1

[21] = molecular target: Fuc(a1-2)[Gal(a1-3)]Gal(b1-3)GlcNAc
Summary of the method: as §1

[22] = molecular target: Fuc(a1-2)[Gal(a1-3)]Gal(b1-3)GlcNAc(b1-2)Man(a1-3)[Fuc(a1-2)[Gal(a1-3)]Gal(b1-3)GlcNAc(b1-2)Man(a1-6)]Man(b1-4)GlcNAc(b1-4)GlcNAc
Summary of the method: as §1

[23] = molecular target: Fuc(a1-2)[Gal(a1-3)]Gal(b1-3)GlcNAc(b1-2)Man(a1-3)[Fuc(a1-2)[Gal(a1-3)]Gal(b1-3)GlcNAc(b1-2)Man(a1-6)]Man(b1-4)GlcNAc(b1-4)[Fuc(a1-6)]GlcNAc
Summary of the method: as §1

[24] = molecular target: Fuc(a1-2)[Gal(a1-3)]Gal(b1-3)GlcNAc(b1-3)GalNAc
Summary of the method: as §1

[25] = molecular target: Fuc(a1-2)[Gal(a1-3)]Gal(b1-3)GlcNAc(b1-6)GalNAc
Summary of the method: as §1

[26] = molecular target: Fuc(a1-2)[Gal(a1-3)]Gal(b1-4)Glc
Summary of the method: as §1

[27] = molecular target: Fuc(a1-2)[Gal(a1-3)]Gal(b1-4)GlcNAc
Summary of the method: as §1

[28] = molecular target: Fuc(a1-2)[Gal(a1-3)]Gal(b1-4)GlcNAc(b1-2)Man
Summary of the method: as §1

[29] = molecular target: Fuc(a1-2)[Gal(a1-3)]Gal(b1-4)GlcNAc(b1-2)Man(a1-3)[Fuc(a1-2)[Gal(a1-3)]Gal(b1-4)GlcNAc(b1-2)Man(a1-6)]Man(b1-4)GlcNAc(b1-4)GlcNAc
Summary of the method: as §1

[30] = molecular target: Fuc(a1-2)[Gal(a1-3)]Gal(b1-4)GlcNAc(b1-2)Man(a1-3)[Fuc(a1-2)[Gal(a1-3)]Gal(b1-4)GlcNAc(b1-2)Man(a1-6)]Man(b1-4)GlcNAc(b1-4)[Fuc(a1-6)]GlcNAc
Summary of the method: as §1

[31] = molecular target: Fuc(a1-2)[Gal(a1-3)]Gal(b1-4)GlcNAc(b1-3)GalNAc
Summary of the method: as §1

[32] = molecular target: Fuc(a1-2)[Gal(a1-3)]Gal(b1-4)GlcNAc(b1-3)[Fuc(a1-2)[Gal(a1-3)]Gal(b1-4)GlcNAc(b1-6)]GalNAc
Summary of the method: as §1

[33] = molecular target: Fuc(a1-2)[Gal(a1-3)]Gal(b1-4)GlcNAc(b1-6)GalNAc
Summary of the method: as §1

[34] = molecular target: Fuc(a1-2)[Gal(a1-3)]Gal(b1-4)[Fuc(a1-3)]Glc
Summary of the method: as §1

[35] = molecular target: Fuc(a1-2)[Gal(a1-3)]Gal(b1-4)[Fuc(a1-3)]GlcNAc
Summary of the method: as §1

B1: Epa9 (Candida glabrata), CAGL0A01386g (protein)
chain: MGSSHHHHHHSSGLVPRGSHMDITPFAHYPRPEGCSSPPNAVSVGLHMDLYNYPYLYVKNPRTGFTNDTDSDADGETDGDSAGGIEGRAGQCWNPEYQDPNFPRYGYKKYGSFGSSDHVNGKISWDHNEFKEGCKPIMARLPTAYNYPAKITFSNFTMVLSGYFKPKSTGLYKFEIHADDFILFNFGSKNAFECCNREESIDNFGPYVAYAMWPNEADQELEVYLFEDSYYPIRLFYNNRDYHSKFMVGFYPPNTEEITYDFDGYLYMLDDTGNECKDSIRYKTVCDD
Q: Which “glycan array binding signal (z-score)” value [1] does the source give for B1 here?
A: The value was -0.268.

Q: And the “glycan array binding signal (z-score)” value [2]?
A: Its value is -0.869.

Q: And the “glycan array binding signal (z-score)” value [3]?
A: Its value is -0.422.

Q: What about the “glycan array binding signal (z-score)” value [4] of the same binder?
A: Its value is -0.355.

Q: And the “glycan array binding signal (z-score)” value [5]?
A: Its value is -0.303.

Q: What about the “glycan array binding signal (z-score)” value [6] of the same binder?
A: Its value is -0.413.

Q: What about the “glycan array binding signal (z-score)” value [7] of the same binder?
A: The value was -0.283.

Q: What about the “glycan array binding signal (z-score)” value [8] of the same binder?
A: Its value is -0.589.

Q: What about the “glycan array binding signal (z-score)” value [9] of the same binder?
A: Its value is -0.334.

Q: What about the “glycan array binding signal (z-score)” value [10] of the same binder?
A: The value was -0.279.

Q: And the “glycan array binding signal (z-score)” value [11]?
A: The value was -0.521.

Q: What about the “glycan array binding signal (z-score)” value [12] of the same binder?
A: The value was -0.539.

Q: And the “glycan array binding signal (z-score)” value [13]?
A: The value was -0.161.

Q: And the “glycan array binding signal (z-score)” value [14]?
A: Its value is -0.247.

Q: And the “glycan array binding signal (z-score)” value [15]?
A: The value was -0.279.

Q: What about the “glycan array binding signal (z-score)” value [16] of the same binder?
A: Its value is -0.444.

Q: And the “glycan array binding signal (z-score)” value [17]?
A: The value was -0.417.

Q: And the “glycan array binding signal (z-score)” value (Fuc(a1-2)Gal6S(b1-4)Glc)?
A: The value was -0.462.

Q: What about the “glycan array binding signal (z-score)” value [18] of the same binder?
A: Its value is -0.459.

Q: What about the “glycan array binding signal (z-score)” value (Fuc(a1-2)[Gal(a1-3)]Gal) of the same binder?
A: The value was -0.137.

Q: What about the “glycan array binding signal (z-score)” value [19] of the same binder?
A: Its value is -0.34.

Q: What about the “glycan array binding signal (z-score)” value [20] of the same binder?
A: The value was -0.371.

Q: What about the “glycan array binding signal (z-score)” value [21] of the same binder?
A: Its value is -0.32.

Q: And the “glycan array binding signal (z-score)” value [22]?
A: Its value is -0.172.

Q: What about the “glycan array binding signal (z-score)” value [23] of the same binder?
A: Its value is -0.391.

Q: What about the “glycan array binding signal (z-score)” value [24] of the same binder?
A: The value was -0.363.

Q: What about the “glycan array binding signal (z-score)” value [25] of the same binder?
A: The value was -0.415.

Q: And the “glycan array binding signal (z-score)” value [26]?
A: The value was -0.338.

Q: And the “glycan array binding signal (z-score)” value [27]?
A: The value was 0.07.

Q: And the “glycan array binding signal (z-score)” value [28]?
A: Its value is -0.056.

Q: What about the “glycan array binding signal (z-score)” value [29] of the same binder?
A: Its value is 0.041.

Q: What about the “glycan array binding signal (z-score)” value [30] of the same binder?
A: Its value is -0.319.

Q: What about the “glycan array binding signal (z-score)” value [31] of the same binder?
A: The value was -0.304.

Q: What about the “glycan array binding signal (z-score)” value [32] of the same binder?
A: Its value is -0.079.

Q: What about the “glycan array binding signal (z-score)” value [33] of the same binder?
A: Its value is -0.507.

Q: And the “glycan array binding signal (z-score)” value [34]?
A: Its value is -0.424.

Q: And the “glycan array binding signal (z-score)” value [35]?
A: The value was -0.364.
